The text below walks through data of PubChem BioAssay AID686979 (National Center for Advancing Translational Sciences (NCATS), 2013).

Values joined by “and” are separate entries in the source; they are usually repeats but may differ in a detail not shown here. Equal values may be shown once. The whole screen tested about 420,000 compounds, of which about 50,000 (12%) were called active. Roughly 26% stayed inconclusive and do not appear here. Calls follow the shape of the dose curve; as a rule, active = well fitted inhibition curve with a large enough effect; inconclusive = small, poorly fitted or top-dose-only effect; inactive = flat fitted curve, though single readings scatter. The entries are a selection whose mix differs from that of the whole data set.
% is scaled to controls: 0 for no effect and ±100 for the full control effect; potency is read from the fitted curve at half-maximal effect.

The test can be described thus: qHTS for Inhibitors of human tyrosyl-DNA phosphodiesterase 1 (TDP1): qHTS in cells in presence of CPT. Also: nearly all actives have a fitted effect of over 55% in size. As to conditions: chicken DT40 Tdp1-/-;hTDP1 cells + 20 nM CPT, ATP luminescence, 48 h; series mostly up to 46.2 µM; activity change, negative = growth inhibition: at the top concentration. Summed up: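 Cell growth measured by CellTiter-Glo luminescence after a minimum 48 h, 37 C compound exposure with 20 nM CPT in Tdp1-knockout DT40 cells stably expressing hTDP1, seeded 400/well; qHTS titration format.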
Regarding `CC1(C(=O)OCC(=O)Nc2ccccc2Cl)CC1(Cl)Cl` (configuration not stated), the “activity change, negative = growth inhibition” value is inactive: 39%.

Take `COc1ccc(NC(=O)COc2ccc(-c3nn(C)c(=O)c4ccccc34)cc2)cc1`: the “activity change, negative = growth inhibition” value was inactive: -8.62%.

Regarding `OC1COC(OCc2ccccc2)C(O)C1O` (configuration not stated), the “activity change, negative = growth inhibition” value is inactive: 36.9%.

Take `CCOc1ccccc1NC(=O)CSc1ccc(-c2sc(C)nc2C)nn1`: the Potency was active: 20.6 µM.

With `O=C(Nc1ccc2c(c1)OCCO2)C1CCCN(S(=O)(=O)c2cccs2)C1` (configuration not stated), the Potency is active: 13 µM.

Regarding `COc1ccc(CCNC(=O)CSc2cc(=O)[nH]c(N)n2)cc1OC`, the “activity change, negative = growth inhibition” value is inactive: 34.3%.

With `CC(C)CCNC(=O)CN1N=C(c2ccc(Cl)cc2)CCC1=O`, the “activity change, negative = growth inhibition” value is inactive: -0.887%.

Take `COc1ccc(C2CC(=O)c3c(O)cc(OC4OC(COC5OC(C)C(O)C(O)C5O)C(O)C(O)C4O)cc3O2)cc1O` (configuration not stated): the “activity change, negative = growth inhibition” value is inactive: 20.6%.

As for `Cc1ccc(-c2cc(C(=O)Nc3ccc(S(=O)(=O)Nc4onc(C)c4C)cc3)c3ccccc3n2)cc1`, the “activity change, negative = growth inhibition” value is inactive: 16.6%.

For `CCOC(=O)C1C(c2ccccc2)N(C)OC1(O)C(F)(F)F` (configuration not stated), the “activity change, negative = growth inhibition” value is inactive: 8.96%.

Regarding `O=C(NCCc1ccccc1)c1ccc(CSc2nc3ccncc3n2Cc2cccc(F)c2)cc1`, the Potency is active: 13 µM.

Regarding `CCN(CC)C(=O)c1sc2c(c1C)c(=O)n(CCc1ccccc1)c(=O)n2Cc1cccc(Cl)c1`, the Potency was active: 23.1 µM.

Turning to `Cc1ccc(C)c(Nc2nn3c(=O)c4ccc(C(=O)N(C)Cc5ccccc5)cc4nc3s2)c1`, the Potency is active: 9.2 µM.

For the molecule `CC(NC(=O)Cc1ccc(F)cc1)c1ccc(F)cc1` (configuration not stated), the “activity change, negative = growth inhibition” value is inactive: -20.9%.

On to `CC(C)(C)c1ccc2c(S(=O)(=O)O)c(C(C)(C)C)ccc2c1`, for which the “activity change, negative = growth inhibition” value is inactive: 7.03%.

For `Cc1cccc(-n2ccnc2SCC(=O)Nc2ccc(F)cc2F)c1C`, the Potency was active: 16.4 µM.

`O=C1CCC(=O)N1OCCOc1ccccc1`: the “activity change, negative = growth inhibition” value was inactive: 32.2%.

Turning to `CCc1cccc(C)c1NC(=O)c1cc(S(=O)(=O)NCc2ccccc2Cl)ccc1F`, the Potency was active: 20.6 µM.

Take `CCOc1ccccc1CNC(=O)CCCn1ncn2c(cc3occc32)c1=O`: the “activity change, negative = growth inhibition” value is inactive: -26.7%.

`CCC1Nc2ncnc(N3CCOCC3)c2N(Cc2ccc(Br)cc2)C1=O` (configuration not stated): the “activity change, negative = growth inhibition” value is inactive: -14.3%.

As to `COc1ccc(CCCc2nnc(SCC(=O)Nc3cc(C)ccc3C)o2)cc1`, the “activity change, negative = growth inhibition” value was inactive: -33.3%.

Take `CC(C)NC(=O)CN(c1cccc([N+](=O)[O-])c1)S(=O)(=O)c1ccccc1`: the “activity change, negative = growth inhibition” value was inactive: 34.9%.

`NC1CCN(c2nc3c(cc2F)c(=O)c(C(=O)O)cn3-c2ccc(F)cc2F)C1` (configuration not stated): the Potency was active: 11.9 µM and active: 16.4 µM.

As to `OCC[C@@H]1C[C@@H](O)[C@H](O)[C@@]2(CCc3ccccc3O2)O1`, the “activity change, negative = growth inhibition” value was inactive: 2.2%.

In the case of `O=C(NC1CCN(CCc2c[nH]c3ccccc23)CC1)c1ccccc1`, the “activity change, negative = growth inhibition” value was inactive: -23.1%.

As for `COc1cc(/C=N/Nc2snc(SC)c2C#N)ccc1O`, the Potency was active: 3.98 µM.

As for `CCCSc1nsc(NC(=O)C(c2ccccc2)c2ccccc2)n1`, the Potency was active: 18.4 µM.
